Measured values taken from PubChem BioAssay AID485341 (National Center for Advancing Translational Sciences (NCATS), 2010).
In all, about 330,000 compounds went through this assay and about 1,700 (0.52%) were called active. Inconclusive means that the source gave no clear call. Such entries were picked first, then a sample of the others. Calls follow the shape of the dose curve; as a rule, active = well fitted inhibition curve with a large enough effect; inconclusive = small, poorly fitted or top-dose-only effect; inactive = no such curve, though single readings can be large or run the other way. Potencies beside an inconclusive call are fits to weak or partial responses and may not hold up.

Each compound was assayed against Beta-lactamase (Escherichia coli (strain K12)) (UniProt P00811) (assay: qHTS Inhibitors of AmpC Beta-Lactamase (assay without detergent)). Details: AmpC nitrocefin hydrolysis, absorbance 480 nm, 0.0001% Triton; series mostly up to 57.1 µM.
In short: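 AmpC (5.3 nM in the dispensed reagent) in 20 mM phosphate pH 7.0 with 0.01% (detergent screen) or 0.0001% Triton X-100 was preincubated with compounds for 15 min at room temperature. Nitrocefin was then added from an 800 uM solution, and hydrolysis was followed at 480 nm.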
Also: nearly all actives have a fitted effect of over 20% in size.
Potency is read from the fitted curve at half-maximal effect; tags tell the direction and shape of the fitted curve.

UniProt P00811, sequence (P00811 whole entry, looked up): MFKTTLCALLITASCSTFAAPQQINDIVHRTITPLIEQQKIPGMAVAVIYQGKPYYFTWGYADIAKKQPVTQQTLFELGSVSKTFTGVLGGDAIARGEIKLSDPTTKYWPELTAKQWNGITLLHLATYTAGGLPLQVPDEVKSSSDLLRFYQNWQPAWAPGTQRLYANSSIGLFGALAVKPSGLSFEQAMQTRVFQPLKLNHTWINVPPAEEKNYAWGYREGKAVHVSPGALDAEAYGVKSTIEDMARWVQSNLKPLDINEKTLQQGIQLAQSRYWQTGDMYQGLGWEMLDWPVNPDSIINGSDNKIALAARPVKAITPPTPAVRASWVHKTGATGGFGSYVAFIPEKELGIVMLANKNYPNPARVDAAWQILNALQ

Q: For `N#CCC(=N)N1CCN(c2ccccc2Cl)CC1`, which Potency is on record?
A: active: 0.316 µM

Q: How did the Potency turn out when `COc1ccccc1-n1cnc2c(c1=O)c1nc3ccccc3nc1n2-c1ccc(C)cc1` was run?
A: inactive

Q: How did the Potency turn out when `O=C(CCCOc1ccccc1)N1CCN(S(=O)(=O)c2cccc(F)c2)CC1` was run?
A: inconclusive: 39.8 µM [inhibitor, single point]

Q: With `CC(C)C(=O)NC(NC(=S)Nc1cccc2cccnc12)C(Cl)(Cl)Cl` (centres undefined) as the compound, how does the Potency read?
A: active: 10 µM

Q: `CC(=O)Nc1ccc(OCCCNC(=O)c2c(-c3ccccc3)noc2C)cc1` was tested. Which Potency did it give?
A: inactive

Q: For `O=C(Nc1ccc(C(F)(F)F)cc1)N1CCN(c2ccnc3cc(Cl)ccc23)CC1`, which Potency is on record?
A: inactive

Q: Which Potency does the source give for `O=[N+]([O-])c1ccc(CNCc2cc(Cl)ccc2O)cc1` here?
A: active: 3.16 µM

Q: `O=C(O)/C=C/C(=O)Nc1ccccc1-c1ccccc1` was tested. Which Potency did it give?
A: inactive

Q: How did the Potency turn out when `Cc1ccc(-c2ccc(/C=C/C(=O)c3ccccc3)o2)cc1` was run?
A: inconclusive: 8.91 µM [inhibitor, full curve, poor fit]

Q: Which Potency does the source give for `O=C(c1cccc(S(=O)(=O)N2CCN(c3ccc(F)cc3)CC2)c1)N1CCCC(C(F)(F)F)C1` (centres undefined) here?
A: inconclusive: 39.8 µM [inhibitor, single point]

Q: For `Cc1cc(C(=O)N/N=C/c2ccc([N+](=O)[O-])o2)c(C)o1`, which Potency is on record?
A: inactive

Q: For `COC(=O)c1sc2cc(C(F)(F)F)cnc2c1-c1cccnc1`, which Potency is on record?
A: inconclusive: 3.16 µM [inhibitor, single point]

Q: `O=C(CSC1=NNC(c2ccccn2)S1)Nc1cccc(Cl)c1` (centres undefined) was tested. Which Potency did it give?
A: inconclusive: 39.8 µM [inhibitor, single point]

Q: With `O=C(O)CN1C(=O)/C(=C\c2cc(Br)ccc2OCc2ccc([N+](=O)[O-])cc2)SC1=S` as the compound, how does the Potency read?
A: active: 20 µM

Q: `COc1cccc(-c2ccc3ncnc(NCc4cccs4)c3c2)c1` was tested. Which Potency did it give?
A: inconclusive: 28.2 µM [inhibitor, single point]

Q: How did the Potency turn out when `COC(=O)c1cn(NC(=O)Cc2ccc(Cl)c(Cl)c2)c(=O)c2ccccc12` was run?
A: inconclusive: 39.8 µM [inhibitor, single point]

Q: With `Brc1ccc(-c2csc(N/N=C/c3ccco3)n2)cc1` as the compound, how does the Potency read?
A: inconclusive: 1.78 µM [inhibitor, full curve, poor fit]

Q: With `C/C(=N\NC(=O)C1CCCC1)c1ccc(Cl)cc1` as the compound, how does the Potency read?
A: inactive

Q: How did the Potency turn out when `O=C(NNc1ccc(-c2csnn2)cc1)c1cc(Cl)cc(Cl)c1` was run?
A: inconclusive: 39.8 µM [inhibitor, single point]

Q: With `CCCn1nc(C(=O)NNC(=O)c2cccc(C)c2)c2ccccc2c1=O` as the compound, how does the Potency read?
A: inactive

Q: `CCOC(=O)C1CCN(C(c2cccc(OC)c2)c2sc3nc(C)nn3c2O)CC1` (centres undefined) was tested. Which Potency did it give?
A: active: 10 µM

Q: How did the Potency turn out when `CCN(CCCNC(=O)c1c(C)cc(=O)oc1C)c1ccccc1` was run?
A: inconclusive: 8.91 µM [inhibitor, single point]

Q: `Cc1ccc(S(=O)(=O)N2CCC[C@H]2C(=O)NCc2ccccc2Cl)cc1` was tested. Which Potency did it give?
A: inactive

Q: How did the Potency turn out when `Cn1c(=O)c(NCCc2ccccc2)c2c3c(cccc31)C(=O)c1ccccc1-2` was run?
A: inconclusive: 4.47 µM [inhibitor, single point]

Q: Which Potency does the source give for `CCN(CC)c1ccc(/C=N/NC(=O)Cc2nnc(NC(=O)Nc3ccccc3)s2)cc1` here?
A: inconclusive: 3.16 µM [inhibitor, full curve, poor fit]

Q: Which Potency does the source give for `COc1ccc(Br)cc1CNc1ccc(O)cc1` here?
A: active: 28.2 µM

Q: Which Potency does the source give for `COc1ccc2nc(N3CCC(C)CC3)c(C#N)cc2c1` here?
A: inconclusive: 8.91 µM [inhibitor, single point]

Q: For `COc1ccc(OC)c(-c2c3cc(O)c(=O)cc-3oc3cc(O)c(O)cc23)c1`, which Potency is on record?
A: active: 28.2 µM

Q: `O=S(=O)(NCCc1csc(-c2cccnc2)n1)c1cccs1` was tested. Which Potency did it give?
A: inconclusive: 0.501 µM [inhibitor, full curve, poor fit]

Q: Which Potency does the source give for `CCCCOC1CC(c2ccc(OCc3ccc(OC)cc3)c(OC)c2)N(C)O1` (centres undefined) here?
A: inactive

Q: Which Potency does the source give for `O=c1c(Cc2ccc(F)cc2)c(O)ccn1Cc1ccc(Cl)cc1Cl` here?
A: inconclusive: 5.62 µM [inhibitor, single point]

Q: How did the Potency turn out when `O=C(CNC(=O)C12CC3CC(CC(C3)C1)C2)NC1=NCCS1` was run?
A: inconclusive: 6.31 µM [inhibitor, single point]

Q: `COc1ccc(S(=O)(=O)NC2CC(=O)N(c3ccc(C)c(C)c3)C2)cc1C` (centres undefined) was tested. Which Potency did it give?
A: inconclusive: 31.6 µM [inhibitor, single point]

Q: How did the Potency turn out when `COc1cccc(CNc2ncnc3cc(OC)c(OC)cc23)c1` was run?
A: active: 3.16 µM

Q: Which Potency does the source give for `Cc1ccc(C(C(=O)NC2CCCC2)N(C(=O)Cc2cccs2)c2ccc(C)c(C)c2)o1` (centres undefined) here?
A: inconclusive: 6.31 µM [inhibitor, single point]

Q: Which Potency does the source give for `N#Cc1cc2c(nc1SCC(=O)Nc1nccs1)CCCCC2` here?
A: inconclusive: 1.78 µM [inhibitor, full curve, poor fit]

Q: How did the Potency turn out when `CC(=O)c1ccc(S(=O)(=O)NC2CC(=O)N(c3ccc(C)c(C)c3)C2)cc1` (centres undefined) was run?
A: inconclusive: 35.5 µM [inhibitor, single point]

Q: With `CCOc1ccc(NC(=O)CN2CC(c3ccccc3)CC2=O)cc1` (centres undefined) as the compound, how does the Potency read?
A: active: 2.51 µM

Q: Which Potency does the source give for `CCOc1ccc(NC(=O)CS(=O)(=O)c2cn(CC)c3ccccc23)cc1` here?
A: inconclusive: 8.91 µM [inhibitor, full curve, poor fit]

Q: With `O=C(CCl)N1N=C(c2cccs2)CC1c1ccco1` (centres undefined) as the compound, how does the Potency read?
A: inactive

Q: For `CC1CCN(S(=O)(=O)c2ccc(NC(=O)CSc3nnnn3C)cc2)CC1`, which Potency is on record?
A: active: 0.158 µM

Q: With `O=C(Nc1nc(-c2ccco2)c(-c2ccco2)s1)C1CCC1` as the compound, how does the Potency read?
A: active: 31.6 µM

Q: How did the Potency turn out when `CCOc1ccc(C2C(C#N)=C(C)NC3=C2C(=O)c2ccccc23)cc1` (centres undefined) was run?
A: inactive

Q: `O=C(CNc1ccc2ccccc2c1)N/N=C/c1ccc([N+](=O)[O-])o1` was tested. Which Potency did it give?
A: inconclusive: 17.8 µM [inhibitor, partial curve]

Q: `Cc1ccc(O)c(N=Cc2cc(Cc3ccccc3)cc([N+](=O)[O-])c2O)c1` was tested. Which Potency did it give?
A: inconclusive: 20 µM [inhibitor, partial curve, poor fit]

Q: How did the Potency turn out when `CCCc1nc2c(=O)[nH]c3ccccc3c2o1` was run?
A: inactive

Q: Which Potency does the source give for `Cc1csc(SCC(=O)c2c(N)n(CC(C)C)c(=O)n(C)c2=O)n1` here?
A: inactive

Q: `NS(=O)(=O)c1ccc(CCNC(=O)c2cc(-c3ccc(Br)cc3)nc3ccccc23)cc1` was tested. Which Potency did it give?
A: inconclusive: 15.8 µM [inhibitor, partial curve]

Q: With `CCC(Oc1ccccc1)C(=O)Nc1cc(C)on1` (centres undefined) as the compound, how does the Potency read?
A: inconclusive: 8.91 µM [inhibitor, full curve, poor fit]

Q: For `O=C(COC(=O)/C=C/c1ccccc1)NNC(=O)c1ccc([N+](=O)[O-])cc1`, which Potency is on record?
A: inconclusive: 35.5 µM [inhibitor, single point]

Q: How did the Potency turn out when `CS(=O)(=O)c1ccc(NC(=O)CCCc2nc3ccccc3c(=O)[nH]2)cc1` was run?
A: inconclusive: 28.2 µM [inhibitor, single point]

Q: For `CC(C)(C)OC(=O)NCc1ccc(CNC(=O)c2[nH]cnc2C(=O)NC2CCN(C(=O)OC(C)(C)C)CC2)cc1`, which Potency is on record?
A: inactive

Q: Which Potency does the source give for `CSCCC(NC(=O)c1ccco1)C(=O)NC1CCCCCC1` (centres undefined) here?
A: inconclusive: 39.8 µM [inhibitor, single point]

Q: With `CCCc1cc(C(=O)NC2CCCCC2)no1` as the compound, how does the Potency read?
A: inconclusive: 39.8 µM [inhibitor, partial curve, poor fit]

Q: `Cc1ccc(O)c(-c2cc(C(=O)NCc3ccc4c(c3)OCO4)[nH]n2)c1` was tested. Which Potency did it give?
A: inconclusive: 39.8 µM [inhibitor, single point]

Q: For `COC(=O)c1c(-c2ccncc2)csc1NC(=O)c1ccoc1C`, which Potency is on record?
A: inconclusive: 5.62 µM [inhibitor, single point]

Q: How did the Potency turn out when `Cc1[nH]c2ccccc2c1C(C#N)(C#N)C1C(=O)c2ccccc2C1=O` was run?
A: active: 14.1 µM

Q: `Cc1ccc(C(=O)NNC(=O)c2cc3cc4ccccc4nc3s2)cc1` was tested. Which Potency did it give?
A: active: 22.4 µM

Q: For `COC(=O)c1cc(C(=O)c2cc(F)ccc2O)cn2c(=O)c3c(C)c(C)sc3nc12`, which Potency is on record?
A: inactive

Q: `COc1cccc(/C(O)=C/c2nc3ccc(C(=O)NCCc4cccc(C)c4)cc3[nH]c2=O)c1` was tested. Which Potency did it give?
A: active: 11.2 µM

Q: Which Potency does the source give for `C=C(C)C1CC=C(C)/C(=N/NC(=O)c2ccccc2[N+](=O)[O-])C1` (centres undefined) here?
A: active: 15.8 µM

Q: For `COc1ccc(CCNC(=O)COC(=O)CNS(=O)(=O)c2ccc(SC)c([N+](=O)[O-])c2)cc1`, which Potency is on record?
A: inactive

Q: How did the Potency turn out when `Clc1ccc(CN=C2Nc3ccccc3CS2)cc1` was run?
A: inactive

Q: With `COc1ccc(/C=C2\CCc3c2nc2ccccc2c3C(=O)O)cc1OC` as the compound, how does the Potency read?
A: inactive

Q: How did the Potency turn out when `COc1ccccc1-c1ccc2nnc(SCC(=O)N3CCCC3)n2n1` was run?
A: inconclusive: 39.8 µM [inhibitor, single point]

Q: How did the Potency turn out when `Cc1cc(C(C)(C)C)oc1C(=O)N(CC(=O)NC1CCCC1)Cc1ccccc1Cl` was run?
A: active: 5.62 µM

Q: Which Potency does the source give for `Cc1c(C(c2ccc(O)cc2)c2c(O)c3ccccc3oc2=O)c(=O)n(-c2ccccc2)n1C` (centres undefined) here?
A: inconclusive: 28.2 µM [inhibitor, single point]

Q: Which Potency does the source give for `CCOC(=O)c1c(C)nc2cc(C)ccn12` here?
A: inactive

Q: Which Potency does the source give for `Cc1ccc(C(=O)N/C(=C\C=C\c2ccccc2)C(=O)NCc2ccco2)cc1` here?
A: inconclusive: 11.2 µM [inhibitor, partial curve, poor fit]

Q: `Clc1ccccc1/C=N/NC1=Nc2cccc3cccc1c23` was tested. Which Potency did it give?
A: inconclusive: 25.1 µM [inhibitor, single point]

Q: Which Potency does the source give for `Cc1ccc(NC(=O)CCSc2nnc(C)o2)cc1` here?
A: inactive

Q: Which Potency does the source give for `CCOC(=O)N1CCN(C(=O)c2ccc3c(=O)n(CCc4ccccc4)c(=O)[nH]c3c2)CC1` here?
A: inconclusive: 6.31 µM [inhibitor, single point]

Q: For `CCN(CC)CCNC(=O)C1CCN(S(=O)(=O)N2CCCCC2)CC1`, which Potency is on record?
A: active: 0.282 µM

Q: `O=C(Cc1ccccc1)O/N=C1\CCCc2ccccc21` was tested. Which Potency did it give?
A: inactive
